# According to PubChem BioAssay (NCATS):
# Inconclusive results, whose numbers are uncertain, are shown with a selection of clear calls. For part of these data: Where the call is inconclusive, the potency comes from a doubtful curve fit. Activity calls are given as the source filed them. Unless noted, the call rests on the fitted dose curve; in most records, active means well fitted curve in the direction sought with a large enough effect; inconclusive means small, poorly fitted or top-dose-only effect, or another doubt; inactive means no such curve, though single readings can be large; an effect the other way counts as inactive or inconclusive.
# Columns and labels:
# [1] = qHTS Assay for Identification of Small Molecule Agonists for Hypoxia Response Element Signaling Pathway (AID 914; active means well fitted activation curve with a large enough effect in the signal ratio, with a control signal flat, not every such curve was filed as active; inconclusive means small, poorly fitted or top-dose-only effect, or effect the other way, or a change in a side signal; the % refers to the signal ratio; further: potency means the concentration at half of the fitted maximal effect; on activation: top concentration of the series differs between compounds; % of control where 0% means no effect); conditions: ME-180 HRE-bla reporter, beta-lactamase ratio, CoCl2, 17 h; activation: hits give high values
# How it was run: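 Cells were plated overnight, pin-dosed with compound in a titration series, co-stimulated with EC50 CoCl2 and incubated 17 hours at 37 degrees Celsius. CCF4 substrate was then loaded, and AC50 values came from the 460nm/530nm ratio.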
# [2] = qHTS Assay for Lipid Storage Modulators (AID 1519; calls by dose curve; further: potency means the concentration at half of the fitted maximal effect; on activity change, negative = inhibition: on the % scale 0 is the no-effect control and ±100 the full control effect); conditions: Drosophila S3 cells, BODIPY lipid droplet/cell ratio, laser cytometry, cells loaded with oleic acid; activity change, negative = inhibition: at 57.5 µM (top of the series) unless noted
# How it was run: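 Cells seeded at 5,000 per well were treated with compounds over a concentration series and loaded with oleic acid (400 uM, as added). Lipid droplet fluorescence (488 nm excitation, 500-530 nm channel) was read by laser-scanning cytometry and normalized to 20 uM Triacsin C.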
# [3] = Primary qHTS for small molecule stabilizers of the endoplasmic reticulum resident proteome: Secreted ER Calcium Modulated Protein (SERCaMP) assay (AID 1508630); conditions: SH-SY5Y GLuc-SERCaMP (Gaussia luciferase released on ER calcium loss) secretion, thapsigargin, luminescence; activity change, negative = inhibition: at 38.4 µM (top of the series) unless noted; further: potency means the concentration at half of the fitted maximal effect
# How it was run: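 GLuc-SERCaMP-expressing SH-SY5Y cells, pretreated 16 h with compound, are challenged with thapsigargin to empty ER calcium stores; after 4 h, coelenterazine is added directly to the medium and luminescence is imaged.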
# [4] = target: 3',5'-cyclic-AMP phosphodiesterase 4B (Homo sapiens) (UniProt Q07343); assay: qHTS Assay for Inhibitors of PDE-IV (AID 607; active means well fitted activation curve with a large enough effect in the main read-out, with a control signal flat, not every such curve was filed as active; inconclusive means small, poorly fitted or top-dose-only effect, or effect the other way, or a change in a side signal; further: potency means the concentration at half of the fitted maximal effect); conditions: HEK293 ACTOne CNG channel cells, membrane potential fluorescence; activation (PDE inhibition): at 22.9 µM (top of the series)
# Sequence of UniProt Q07343 (Q07343 whole entry, looked up): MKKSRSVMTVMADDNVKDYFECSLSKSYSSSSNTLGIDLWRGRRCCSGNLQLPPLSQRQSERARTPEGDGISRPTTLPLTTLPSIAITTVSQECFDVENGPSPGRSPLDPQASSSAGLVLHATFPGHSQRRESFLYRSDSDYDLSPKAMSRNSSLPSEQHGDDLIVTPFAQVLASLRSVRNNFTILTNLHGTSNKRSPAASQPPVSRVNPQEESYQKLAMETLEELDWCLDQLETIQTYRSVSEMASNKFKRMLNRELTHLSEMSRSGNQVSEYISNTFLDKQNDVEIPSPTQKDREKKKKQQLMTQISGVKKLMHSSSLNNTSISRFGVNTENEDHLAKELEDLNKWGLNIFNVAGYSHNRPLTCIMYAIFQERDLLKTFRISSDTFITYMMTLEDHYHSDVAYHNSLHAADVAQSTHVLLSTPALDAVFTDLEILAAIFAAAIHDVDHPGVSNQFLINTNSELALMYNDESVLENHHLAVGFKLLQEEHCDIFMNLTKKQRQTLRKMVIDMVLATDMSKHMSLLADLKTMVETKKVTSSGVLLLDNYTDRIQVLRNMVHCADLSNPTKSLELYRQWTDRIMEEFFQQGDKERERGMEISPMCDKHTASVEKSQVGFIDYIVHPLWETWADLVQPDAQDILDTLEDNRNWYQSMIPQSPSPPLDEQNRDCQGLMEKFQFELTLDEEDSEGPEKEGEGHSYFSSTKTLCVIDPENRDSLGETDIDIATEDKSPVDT
# How it was run: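 The readout is membrane depolarisation from a cAMP-sensing CNG channel, detected with a potential dye at ex 535/em 590. Cells were HEK293-derived (endogenous PDE-IV) at 1000 cells/well, titrated up to 22.9 uM final.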
# [5] = target: Cytochrome P450 2C9 (Homo sapiens) (UniProt P11712); assay: qHTS Assay for Inhibitors and Substrates of Cytochrome P450 2C9 (AID 883); further: potency means the concentration at half of the fitted maximal effect; nearly all actives have a fitted effect of over 60% in size
# Sequence of UniProt P11712 (P11712 whole entry, looked up): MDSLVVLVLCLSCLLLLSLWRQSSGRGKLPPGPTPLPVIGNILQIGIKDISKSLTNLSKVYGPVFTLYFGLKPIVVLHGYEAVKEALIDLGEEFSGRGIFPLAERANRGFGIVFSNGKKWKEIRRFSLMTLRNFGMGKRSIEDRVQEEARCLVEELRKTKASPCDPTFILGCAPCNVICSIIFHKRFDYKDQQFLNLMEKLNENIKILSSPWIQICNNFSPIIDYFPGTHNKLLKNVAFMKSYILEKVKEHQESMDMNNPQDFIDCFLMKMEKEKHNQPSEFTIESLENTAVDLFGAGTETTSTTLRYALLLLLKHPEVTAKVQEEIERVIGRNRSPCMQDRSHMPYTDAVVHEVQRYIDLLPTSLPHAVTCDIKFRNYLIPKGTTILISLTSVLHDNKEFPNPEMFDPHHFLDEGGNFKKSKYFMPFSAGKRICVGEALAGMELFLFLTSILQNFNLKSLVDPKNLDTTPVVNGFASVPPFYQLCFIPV
# How it was run: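 10nM CYP2C9 + 100uM Luciferin-H (=KM), 25mM KPO4; cpd 10 min 37C; NADPH regen, 60 min 37C; stop/detect with P450 Glo-Buffer 20 min; luminescence. Norm. to 57uM sulphaphenazole as full inhibition.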
# [6] = target: Cytochrome P450 2C19 (Homo sapiens) (UniProt P33261); assay: qHTS Assay for Inhibitors and Substrates of Cytochrome P450 2C19 (AID 899); further: potency means the concentration at half of the fitted maximal effect; nearly all actives have a fitted effect of over 60% in size
# Sequence of UniProt P33261 (P33261 whole entry, looked up): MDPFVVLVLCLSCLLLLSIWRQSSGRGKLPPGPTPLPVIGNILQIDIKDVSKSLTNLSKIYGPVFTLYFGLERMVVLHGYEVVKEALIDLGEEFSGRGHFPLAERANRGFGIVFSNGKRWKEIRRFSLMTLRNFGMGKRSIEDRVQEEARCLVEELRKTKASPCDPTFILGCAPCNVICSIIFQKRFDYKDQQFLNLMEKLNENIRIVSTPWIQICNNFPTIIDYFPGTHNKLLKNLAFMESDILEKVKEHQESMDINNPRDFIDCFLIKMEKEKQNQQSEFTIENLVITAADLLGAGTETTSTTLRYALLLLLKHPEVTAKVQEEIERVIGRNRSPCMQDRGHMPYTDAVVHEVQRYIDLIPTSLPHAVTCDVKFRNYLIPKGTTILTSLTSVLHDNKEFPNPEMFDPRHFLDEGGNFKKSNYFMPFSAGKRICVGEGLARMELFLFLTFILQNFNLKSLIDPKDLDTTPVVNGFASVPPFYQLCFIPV
# How it was run: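 Luminescent read-out of luciferin formed from Luciferin-H EGE (10uM, equal to KM). Enzyme 5nM in 50mM KPO4; compound added, 10 min at 37C, then NADPH regenerating system for 60 min at 37C. Full inhibition defined by 57uM ketoconazole.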
# [7] = target: Dual specificity protein kinase CLK4 (Homo sapiens) (UniProt Q9HAZ1); assay: qHTS Assay for Inhibitors of CDC-like Kinase 4 (ADP-FP Assay) (AID 1795);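 further: recombinant human CLK4 phosphorylating RS repeat peptide at 1 µM ATP; potency means the concentration at half of the fitted maximal effect; nearly all actives have a fitted effect of over 60% in size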
# Sequence of UniProt Q9HAZ1 (Q9HAZ1 whole entry, looked up): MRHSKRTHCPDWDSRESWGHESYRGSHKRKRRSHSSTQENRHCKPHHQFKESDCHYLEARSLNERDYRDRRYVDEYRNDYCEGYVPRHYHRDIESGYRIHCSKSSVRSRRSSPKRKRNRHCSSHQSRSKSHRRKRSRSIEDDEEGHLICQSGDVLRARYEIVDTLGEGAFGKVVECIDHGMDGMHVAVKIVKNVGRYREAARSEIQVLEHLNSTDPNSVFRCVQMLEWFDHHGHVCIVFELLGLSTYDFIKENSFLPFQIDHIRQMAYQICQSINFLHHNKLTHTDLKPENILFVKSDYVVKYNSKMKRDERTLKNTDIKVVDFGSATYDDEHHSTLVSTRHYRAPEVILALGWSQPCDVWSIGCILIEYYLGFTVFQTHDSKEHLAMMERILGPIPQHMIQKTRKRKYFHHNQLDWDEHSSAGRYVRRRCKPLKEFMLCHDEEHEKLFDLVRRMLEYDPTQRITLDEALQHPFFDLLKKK
# How it was run: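 FP readout: Orange Transcreener ADP2 tracer (4 nM) plus ADP antibody, read after 30 min at room temperature. Kinase step: 6.25 nM Clk4, 100 uM RS peptide, 1 uM ATP, pH 7.5, 1 h.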
# [8] = target: Rap guanine nucleotide exchange factor 3 (Homo sapiens) (UniProt O95398); assay: Confirmatory qHTS for agonist of cAMP-regulated guanine nucleotide exchange factor 3 (EPAC1) (AID 1645881); conditions: EPAC1 Rap1B BODIPY-GDP exchange fluorescence; activation: at 154 µM (top of the series), 100% = cAMP control response; further: nearly all actives have a fitted effect of over 75% in size; further: potency means the concentration at half of the fitted maximal effect;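 on activation: EPAC1 catalysed release of BODIPY-GDP from Rap1B seen as fluorescence loss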
# Sequence of UniProt O95398 (O95398 whole entry, looked up): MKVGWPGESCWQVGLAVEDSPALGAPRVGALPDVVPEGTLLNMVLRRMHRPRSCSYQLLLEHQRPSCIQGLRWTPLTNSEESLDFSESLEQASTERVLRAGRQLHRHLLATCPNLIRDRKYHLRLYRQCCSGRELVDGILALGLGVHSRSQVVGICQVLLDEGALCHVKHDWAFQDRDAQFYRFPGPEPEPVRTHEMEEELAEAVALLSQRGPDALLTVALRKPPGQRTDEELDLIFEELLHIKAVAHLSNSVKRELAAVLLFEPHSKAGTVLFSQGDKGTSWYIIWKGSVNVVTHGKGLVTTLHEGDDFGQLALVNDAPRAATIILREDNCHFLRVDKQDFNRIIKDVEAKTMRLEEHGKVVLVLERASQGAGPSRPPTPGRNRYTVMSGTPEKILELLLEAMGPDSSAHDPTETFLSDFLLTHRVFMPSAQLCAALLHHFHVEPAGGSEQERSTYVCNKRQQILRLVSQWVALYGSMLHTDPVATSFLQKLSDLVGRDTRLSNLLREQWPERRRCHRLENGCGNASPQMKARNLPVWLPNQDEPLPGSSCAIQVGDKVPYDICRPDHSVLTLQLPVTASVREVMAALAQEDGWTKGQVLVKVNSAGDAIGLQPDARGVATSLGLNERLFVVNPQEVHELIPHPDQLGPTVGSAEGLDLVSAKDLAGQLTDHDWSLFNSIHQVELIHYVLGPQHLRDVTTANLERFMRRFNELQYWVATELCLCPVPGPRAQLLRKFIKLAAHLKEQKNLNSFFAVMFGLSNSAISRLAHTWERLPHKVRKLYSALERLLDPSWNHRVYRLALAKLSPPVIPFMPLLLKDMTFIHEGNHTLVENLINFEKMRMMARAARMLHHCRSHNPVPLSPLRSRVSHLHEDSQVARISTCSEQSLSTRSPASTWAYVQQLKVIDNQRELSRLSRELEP
# [9] = NFAT Signaling Pathway (AID 444; active means well fitted curve in either direction with a large enough effect, not every such curve was filed as active; inconclusive means small, poorly fitted or top-dose-only effect, or another doubt;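 further: carbachol stimulus at about its EC50 of 1 µM final; on the % scale 0 is the no-effect control and ±100 the full control effect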); conditions: Jurkat NFAT-bla M1, carbachol, beta-lactamase ratio, 5 h; at 7.69 µM (top of the series) unless noted
# How it was run: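 Jurkat cells with NFAT-driven β-lactamase reporter and co-expressed M1 receptor, stimulated with carbachol (final 1 uM, ~EC50), compound titration, 5 h at 37 °C. CCF4 loaded 1 h at RT; 460/530 nm ratio gave %activity and AC50.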
# [10] = target: Rap guanine nucleotide exchange factor 3 (Homo sapiens) (UniProt O95398); assay: Confirmatory qHTS for antagonist of cAMP-regulated guanine nucleotide exchange factor 3 (EPAC1) (AID 1645880); conditions: EPAC1 Rap1B-BODIPY-GDP exchange, fluorescence; activity, negative = inhibition: at 115 µM (top of the series); further: nearly all actives have a fitted effect of over 55% in size; further: potency means the concentration at half of the fitted maximal effect;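 on activity, negative = inhibition: plate controls were DMSO only for no effect and full effect of the ATA control for full effect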
# How it was run: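 Nucleotide exchange uses 100 nM EPAC1, 250 nM RAP1B-BODIPY-GDP and 50 uM GDP, with compounds in a concentration-titration series. After 5 min at room temperature, fluorescence (480 nm ex/540 nm em) is read every 5 min for 30 min. Data are normalized to control ATA and DMSO.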
# [11] = target: Rap guanine nucleotide exchange factor 4 (Homo sapiens) (UniProt Q8WZA2); assay: Confirmatory qHTS for antagonist of cAMP-regulated guanine nucleotide exchange factor 4 (EPAC2) (AID 1645885); conditions: activity change, negative = inhibition: at 12.7 µM (top of the series) unless noted; further: potency means the concentration at half of the fitted maximal effect; nearly all actives have a fitted effect of over 25% in size
# Sequence of UniProt Q8WZA2 (Q8WZA2 whole entry, looked up): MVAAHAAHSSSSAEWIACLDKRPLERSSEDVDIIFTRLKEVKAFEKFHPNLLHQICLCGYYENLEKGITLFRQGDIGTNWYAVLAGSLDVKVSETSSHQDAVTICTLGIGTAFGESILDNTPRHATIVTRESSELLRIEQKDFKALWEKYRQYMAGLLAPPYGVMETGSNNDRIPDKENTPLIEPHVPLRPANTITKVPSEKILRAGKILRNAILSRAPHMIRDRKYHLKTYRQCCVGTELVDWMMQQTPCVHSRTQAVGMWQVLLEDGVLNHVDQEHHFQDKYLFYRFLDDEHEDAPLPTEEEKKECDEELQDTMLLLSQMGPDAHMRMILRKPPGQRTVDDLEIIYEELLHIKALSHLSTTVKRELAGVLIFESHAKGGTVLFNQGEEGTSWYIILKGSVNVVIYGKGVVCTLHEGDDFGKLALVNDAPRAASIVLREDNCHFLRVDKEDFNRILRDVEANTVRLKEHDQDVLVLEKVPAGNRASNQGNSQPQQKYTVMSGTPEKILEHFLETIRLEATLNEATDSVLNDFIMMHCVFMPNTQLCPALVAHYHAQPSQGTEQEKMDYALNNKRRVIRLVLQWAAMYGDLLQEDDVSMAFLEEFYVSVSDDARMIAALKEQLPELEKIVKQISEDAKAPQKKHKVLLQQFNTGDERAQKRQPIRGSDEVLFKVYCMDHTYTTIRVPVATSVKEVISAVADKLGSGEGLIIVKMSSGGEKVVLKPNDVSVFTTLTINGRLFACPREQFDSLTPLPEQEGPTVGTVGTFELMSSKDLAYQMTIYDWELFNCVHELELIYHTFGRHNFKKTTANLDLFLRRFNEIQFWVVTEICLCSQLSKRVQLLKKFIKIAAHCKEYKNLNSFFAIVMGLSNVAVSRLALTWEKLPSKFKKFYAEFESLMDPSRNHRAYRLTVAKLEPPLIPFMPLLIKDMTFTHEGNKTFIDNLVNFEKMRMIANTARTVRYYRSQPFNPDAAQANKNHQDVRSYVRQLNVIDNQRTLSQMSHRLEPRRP
# [12] = AP1 Signaling Pathway (AID 357; active means well fitted curve in either direction with a large enough effect, not every such curve was filed as active; inconclusive means small, poorly fitted or top-dose-only effect, or another doubt; further: top concentration of the series differs between compounds; on the % scale 0 is the no-effect control and ±100 the full control effect); conditions: ME-180 AP-1-bla reporter, EGF-induced, beta-lactamase ratio, 5 h; at 7.69 µM (top of the series) unless noted
# How it was run: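 Modulation of EGF-driven AP-1 transcription was assessed with a beta-lactamase reporter in ME-180 cells. Compound and EC50 EGF were co-incubated 5 hours at 37 °C before 2.5-hour CCF4 loading at room temperature and dual-emission reading.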
# [13] = target: Rap guanine nucleotide exchange factor 4 (Homo sapiens) (UniProt Q8WZA2); assay: Confirmatory qHTS for agonist of cAMP-regulated guanine nucleotide exchange factor 4 (EPAC2) (AID 1645884); conditions: EPAC2 GEF activity, Rap1B-BODIPY-GDP fluorescence; activation: at 154 µM (top of the series), percent relative to cAMP agonist control;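 further: nucleotide exchange releases bodipy-GDP from Rap1 and this lowers its fluorescence; potency means the concentration at half of the fitted maximal effect; nearly all actives have a fitted effect of over 65% in size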
# [14] = target: Cytochrome P450 2D6 (Homo sapiens) (UniProt P10635); assay: qHTS Assay for Inhibitors and Substrates of Cytochrome P450 2D6 (AID 891);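 further: luciferin methyl ether substrate demethylated by CYP2D6 with NADPH regeneration; potency means the concentration at half of the fitted maximal effect; nearly all actives have a fitted effect of over 60% in size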
# How it was run: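 Human CYP2D6 (5 nM) with 30 uM Luciferin-ME EGE (at Km) in 100 mM KPO4, compound preincubated 10 min, then NADPH regeneration system for 60 min at room temperature. Luciferin read by luminescence; normalized to 1.43 uM quinidine.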
# [15] = target: Ubiquitin carboxyl-terminal hydrolase 1 (Homo sapiens) (UniProt O94782); assay: Inhibitors of USP1/UAF1: Pilot qHTS (AID 504865); further: potency means the concentration at half of the fitted maximal effect;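 further: rhodamine fluorescence freed from ubiquitin-rhodamine substrate followed over time; nearly all actives have a fitted effect of over 35% in size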
# Sequence of UniProt O94782 (O94782 whole entry, looked up): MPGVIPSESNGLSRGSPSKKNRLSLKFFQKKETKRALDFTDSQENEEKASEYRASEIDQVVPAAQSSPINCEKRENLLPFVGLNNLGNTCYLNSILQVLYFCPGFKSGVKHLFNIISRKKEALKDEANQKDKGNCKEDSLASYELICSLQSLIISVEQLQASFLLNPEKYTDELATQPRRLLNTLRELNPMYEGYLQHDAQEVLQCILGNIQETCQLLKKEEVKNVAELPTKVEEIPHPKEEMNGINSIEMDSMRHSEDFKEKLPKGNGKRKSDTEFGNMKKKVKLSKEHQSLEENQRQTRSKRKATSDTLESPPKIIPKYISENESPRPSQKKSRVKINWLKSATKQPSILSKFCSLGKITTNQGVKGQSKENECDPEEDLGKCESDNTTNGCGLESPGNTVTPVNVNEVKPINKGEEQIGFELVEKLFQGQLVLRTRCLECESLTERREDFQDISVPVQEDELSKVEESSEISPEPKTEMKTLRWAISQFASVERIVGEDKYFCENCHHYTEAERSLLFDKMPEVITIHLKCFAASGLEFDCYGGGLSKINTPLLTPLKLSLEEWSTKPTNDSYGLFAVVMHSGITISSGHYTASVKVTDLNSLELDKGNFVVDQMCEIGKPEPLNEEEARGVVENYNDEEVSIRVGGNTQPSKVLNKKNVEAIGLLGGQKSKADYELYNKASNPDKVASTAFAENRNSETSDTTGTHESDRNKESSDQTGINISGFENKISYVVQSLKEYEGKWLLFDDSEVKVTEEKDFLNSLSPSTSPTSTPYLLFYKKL
# How it was run: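 1nM USP1/UAF1 + cpd, 15 min RT; start w/ Ub-Rho 150nM final; kinetic FL 480/540 nm, 6 reads q60 s. Buffer 50mM HEPES pH 7.8, 0.5mM EDTA, 1mM TCEP, 0.01% Tween-20, 0.1 mg/ml BSA.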
# [16] = Stat Signaling Pathway (AID 446; active means well fitted curve in either direction with a large enough effect, not every such curve was filed as active; inconclusive means small, poorly fitted or top-dose-only effect, or another doubt;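 further: ME-180 cervical cancer cells given 40 pM IL-6 alongside compound; SIE-controlled beta-lactamase reporter measured as 460/530 nm FRET emission ratio; top concentration of the series differs between compounds; on the % scale 0 is the no-effect control and ±100 the full control effect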); conditions: ME-180 SIE beta-lactamase reporter, IL-6 stimulated, 5 h; at 7.69 µM (top of the series) unless noted
# How it was run: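 Screening format detects activators and inhibitors alike: ME-180 SIE-bla cells stimulated at 40 pM IL-6 for 5 hrs with compound, then dual-emission beta-lactamase read at 405 nm excitation.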
# [17] = target: Glucocorticoid receptor (Homo sapiens) (UniProt P04150); assay: GR-EFC Redistribution (AID 451; calls by dose curve; further: potency means the concentration at half of the fitted maximal effect); conditions: CHO-K1 GR-EFC translocation, beta-gal luminescence, 2 h
# How it was run: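 CHO-K1 cells expressing nuclear EA and GR-ED fragments of b-gal; compounds titrated up to 46 uM final, 2 h at 37 C. GR nuclear translocation read as complemented b-gal luminescence after 1 h RT detection.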
# [18] = target: Mitogen-activated protein kinase 10 (Mus musculus) (UniProt Q61831); assay: JNK3 AlphaScreen Assay (AID 530; active means well fitted curve in either direction with a large enough effect, not every such curve was filed as active; inconclusive means small, poorly fitted or top-dose-only effect, or another doubt;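 further: kinase came from lysate of stimulated human HepG2 cells; signal reports phosphorylation of biotinylated GST-cJun 1-79 at Ser73 with 10 µM ATP; potency means the concentration at half of the fitted maximal effect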); conditions: JNK3 lysate, c-Jun phosphorylation; activity change, negative = inhibition: at 57.1 µM (top of the series)
# How it was run: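 qHTS format: compounds tested as titrations against IL-1beta/TNF-alpha-activated HepG2 lysate JNK3 with biotin-GST-cJun substrate and 10 uM ATP at room temperature. Loss of anti-phospho-cJun AlphaScreen signal indicates inhibition.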
# Tags describe the fitted curve by direction and shape or compound fluorescence and quenching.
smiles,measurement,setting,value
COc1ccc(Oc2ncc3nc(-c4ccc(F)cc4)c(=O)n(CCC#N)c3n2)cc1,Potency,[1],"inconclusive: 0.631 µM [inhibitor, partial curve]"
same,"activity change, negative = inhibition",[2],inconclusive: 2.7%
same,Potency,[3],"inconclusive: 28.2 µM [inhibitor, single point]"
COc1ccc(Oc2ncc3nc(-c4ccc(F)cc4)c(=O)n(C[C@H]4CCCO4)c3n2)cc1,Potency,[1],"inconclusive: 1.26 µM [inhibitor, partial curve]"
same,Potency,[2],"inconclusive: 25.1 µM [inhibitor, single point]"
same,Potency,[3],"inconclusive: 28.2 µM [inhibitor, single point]"
COc1ccccc1-c1ccc2ncnc(NC3CC3)c2c1,Potency,[4],"inconclusive: 7.94 µM [activator, partial curve]"
same,activation,[1],inactive: 27.8%
same,Potency,[2],inactive
same,Potency,[3],"inconclusive: 28.2 µM [inhibitor, single point]"
CN(C)c1ccc(-c2nc(N3CCNCC3)c3ccccc3n2)cc1,Potency,[4],"inconclusive: 7.94 µM [inhibitor, partial curve, poor fit]"
same,"activity change, negative = inhibition",[2],inconclusive: 9.47%
same,Potency,[3],"inconclusive: 7.94 µM [inhibitor, partial curve, poor fit]"
COc1cccc(-c2cc(NCCc3c[nH]c4ccc(OC)cc34)ncn2)c1,Potency,[5],"inconclusive: 1.58 µM [inhibitor, single point]"
same,Potency,[6],active: 0.501 µM
same,Potency,[7],"inconclusive: 12.6 µM [falling, partial curve]"
same,Potency,[3],"inconclusive: 28.2 µM [inhibitor, single point]"
same,Potency,[8],inactive
O=C(c1cc(C(F)(F)F)cc(C(F)(F)F)c1)N1CCC2(CCCN(c3ncccn3)C2)CC1,"activity change, negative = inhibition",[9],inconclusive: 35.1% [activator]
same,Potency,[3],"inconclusive: 25.1 µM [inhibitor, single point]"
same,Potency,[10],"inconclusive: 39.5 µM [inhibitor, partial curve, poor fit]"
same,Potency,[11],active: 44.1 µM
COc1cccc(Nc2ncc3nc(-c4ccc(F)cc4)c(=O)n(CCC#N)c3n2)c1,"activity change, negative = inhibition",[12],inconclusive: -54.8% [inhibitor]
same,Potency,[3],"inconclusive: 2.51 µM [inhibitor, full curve, poor fit]"
same,Potency,[8],"inconclusive: 56.1 µM [activator, partial curve]"
same,Potency,[13],"inconclusive: 79.3 µM [activator, partial curve]"
COc1ccc(C(=O)N2CCC3(CCCN(c4cccc(-c5ccccc5)c4)C3)CC2)cc1,"activity change, negative = inhibition",[9],inconclusive: -47.3% [inhibitor]
same,activation,[1],inconclusive: -20.4%
same,Potency,[3],inactive
same,Potency,[10],inactive
same,Potency,[8],"inconclusive: 70.6 µM [activator, partial curve, poor fit]"
same,Potency,[13],"inconclusive: 70.6 µM [activator, partial curve]"
COc1ccc(CNc2ncncc2-c2ccccc2C)c(OC)c1,Potency,[3],inactive
same,Potency,[11],"inconclusive: 15.6 µM [inhibitor, partial curve]"
C=CC(C)(C)c1c2c(c(O)c3c(=O)c4ccc(O)c(O)c4oc13)C=CC(C)(C)O2,Potency,[3],inactive
same,Potency,[10],"inconclusive: 62.7 µM [inhibitor, single point]"
same,Potency,[11],"inconclusive: 55.5 µM [inhibitor, partial curve]"
COc1cccc(-c2cncnc2NCc2ccc(OC)cc2OC)c1,Potency,[4],"inconclusive: 12.6 µM [activator, partial curve]"
same,Potency,[14],active: 7.94 µM
same,Potency,[1],"inconclusive: 3.98 µM [activator, single point]"
same,Potency,[15],"inconclusive: 56.2 µM [inhibitor, partial curve]"
same,Potency,[3],"inconclusive: 28.2 µM [inhibitor, single point]"
same,Potency,[10],"inconclusive: 7.89 µM [inhibitor, partial curve, poor fit]"
same,Potency,[11],active: 44.1 µM
COc1ccc2[nH]cc(CCNc3ncncc3-c3ccccc3Cl)c2c1,Potency,[1],"inconclusive: 2 µM [inhibitor, partial curve]"
same,Potency,[7],active: 12.6 µM
same,Potency,[3],"inconclusive: 28.2 µM [inhibitor, single point]"
same,Potency,[10],inactive
same,Potency,[13],"inconclusive: 31.6 µM [activator, partial curve, poor fit]"
COc1ccccc1CNc1ncnc2ccc(-c3cccnc3)cc12,"activity change, negative = inhibition",[12],inconclusive: -52.6% [inhibitor]
same,"activity, negative = inhibition",[16],inactive: -17.2%
same,Potency,[4],"inconclusive: 10 µM [activator, single point]"
same,Potency,[1],"inconclusive: 3.98 µM [inhibitor, partial curve]"
same,Potency,[15],"inconclusive: 44.7 µM [inhibitor, partial curve]"
same,Potency,[3],"inconclusive: 28.2 µM [inhibitor, single point]"
same,Potency,[10],inactive
same,Potency,[11],"inconclusive: 31.2 µM [inhibitor, partial curve, poor fit]"
CC[C@]1(c2ncc[nH]2)Cc2ccccc2O1,Potency,[17],inactive: > 46 µM
same,Potency,[15],inactive
same,"activity change, negative = inhibition",[3],inconclusive: -34.5% [inhibitor]
same,Potency,[10],inactive
same,Potency,[11],active: 44.1 µM
CN1CCN(c2ncc3nc(-c4cn(C)c5ccccc45)c(=O)n(CCC#N)c3n2)CC1,"activity change, negative = inhibition",[9],inactive: 23.5%
same,"activity, negative = inhibition",[16],inconclusive: 40.9% [activator]
same,Potency,[18],"inconclusive: 15.8 µM [activator, partial curve]"
same,Potency,[1],active: 3.16 µM
same,Potency,[15],"inconclusive: 22.4 µM [inhibitor, partial curve, poor fit]"
same,Potency,[3],"inconclusive: 5.01 µM [inhibitor, partial curve, poor fit]"
same,Potency,[10],inactive
